Screen size: about 150,000 compounds; about 540 (0.36%) showed an effect of 50% or more. This is one part of the list.

The test system of the experiment is Plasmodium falciparum. Briefly: Primary screen in NF54 nanoGlo assay, in single point, at 2uM, 72h; a lower Z score goes with more inhibition. The experiment is classed as functional, Erythrocyte. As to conditions: timepoint 72 hour.
A word on the % Inhibition: it is the drop in the measured response relative to a control, in per cent. For the molecule `COc1ccc(C(=O)Nc2cccnc2)nn1`, the “% Inhibition” value is on record as -11% and the Z score is recorded as 1.2.

As for `CC1=C[C@@H](CNC(=O)c2ccc(F)cc2)[C@H](C(C)C)C[C@H]1Cc1nnc(-c2ccncc2)o1`, the “% Inhibition” value was determined as 26% and the Z score is on record as -2.98.

Regarding `O=C(C1=COCCO1)N1CCC[C@H](c2nc(-c3ccccc3)c[nH]2)C1`, the “% Inhibition” value is -7% and the Z score is listed as 0.92.

With `Cc1ccc2c(c1)[nH]c(=O)c1c(C(=O)NCc3cccc(Cl)c3)nnn12`, the “% Inhibition” value was 0% and the Z score worked out at 0.09.

Regarding `O=C1COC(=O)N1C1CN(S(=O)(=O)c2cccnc2)C1`, the “% Inhibition” value is 0% and the Z score is on record as -0.04.

Consider `c1ccc(C2(c3nnc([C@@H]4CCCO4)o3)CCOCC2)cc1`, for which the “% Inhibition” value is 3% and the Z score is listed as -0.52.

Take `COc1ccc(C(=O)Nc2cc(-c3ccccn3)no2)c(C)c1`: the “% Inhibition” value is reported as -15% and the Z score was 2.58.

Consider `O=C(c1cc(-c2ccc(F)cc2)n[nH]1)N1CC(OCC(F)(F)F)C1`, for which the “% Inhibition” value is -13% and the Z score was determined as 2.08.

Consider `O=C(NCCc1cccnc1)c1ccn(CC(F)F)n1`, for which the “% Inhibition” value came out at 0% and the Z score worked out at 0.01.

With `Cc1cccc(C)c1[C@@H]1CCCN1C(=O)Nc1ccc(F)c(-n2nnnc2C)c1`, the “% Inhibition” value is reported as -1% and the Z score was 0.06.

As to `CC(C)N1C[C@H]2CN(S(=O)(=O)c3ccc(F)c(F)c3)C[C@@]2(C(=O)N2CCCC2)C1`, the “% Inhibition” value was determined as 2% and the Z score was -0.27.

`CC(=O)N1C[C@H]2CN(C(=O)c3cccc(C)c3)C[C@@]2(C(=O)N2CCCC2)C1`: the “% Inhibition” value was -5% and the Z score amounted to 0.72.

Consider `CCc1ccccc1NC(=O)c1cc2n(n1)CCCC2`, for which the “% Inhibition” value is given as -2% and the Z score was found to be 0.32.

Take `CN1C[C@H]2CN(Cc3c[nH]c4ccccc34)CCN2C1=O`: the “% Inhibition” value is 19% and the Z score is -2.24.

As to `CC(CNc1ccccc1)NC(=O)NCC1CCCO1` (configuration not stated), the “% Inhibition” value is given as -14% and the Z score stood at 1.8.

With `COc1ccc(Cl)cc1C(=O)NC1CCN(c2ncnc3c2CCCC3)CC1`, the “% Inhibition” value was -6% and the Z score is 0.8.

For the molecule `O=C1NCCCN(C(=O)Nc2ccccc2)[C@H]1Cc1ccccc1`, the “% Inhibition” value is 1% and the Z score is -0.19.

As to `C[C@@H](c1nnnn1C1CCCCC1)N(C)Cc1cccc(N(C)C)c1`, the “% Inhibition” value was -7% and the Z score is listed as 1.18.

With `CCNC(=O)N1CCN(C(=O)c2ccc3c(c2)ncn3-c2cccc(C)c2)CC1`, the “% Inhibition” value was -4% and the Z score is reported as 0.49.

Regarding `Cc1n[nH]c(C(=O)Nc2ccccc2NC2CCC2)c1O`, the “% Inhibition” value was -12% and the Z score is given as 2.45.

In the case of `Cc1cc(-c2cc(-c3cnc(N(C)C)s3)c(C#N)c(N)n2)c(C)s1`, the “% Inhibition” value is -3% and the Z score came out at 0.38.

As to `CCc1ncc(C(=O)NCc2csc(N3CCOCC3)n2)cn1`, the “% Inhibition” value was 26% and the Z score was -3.62.

With `C[C@H]1c2cccn2CCN1CC(=O)Nc1ccc2c(c1)CCC2`, the “% Inhibition” value is recorded as -3% and the Z score is reported as 0.66.

Consider `CC(C)(c1ccccc1)c1nnc(NC(=O)N2CCCC2)s1`, for which the “% Inhibition” value is listed as -9% and the Z score is recorded as 1.74.

For `Cc1cnc(NC(=O)c2ccccc2C(=O)c2ccc(Br)cc2)s1`, the “% Inhibition” value is listed as -8% and the Z score is given as 0.98.

For the molecule `O=C(Cn1cccn1)N1CCN(Cc2ccccc2)[C@@H]2CS(=O)(=O)C[C@@H]21`, the “% Inhibition” value is given as -7% and the Z score is recorded as 1.28.

Turning to `COc1ccc(OC)c(-n2c(Cc3ccc(O)cc3)n[nH]c2=O)c1`, the “% Inhibition” value stood at 1% and the Z score was -0.14.

Regarding `O=C1CCCN1CC(=O)N1CCC[C@@]2(CCC(=O)N(CCc3ccccn3)C2)C1`, the “% Inhibition” value is reported as -4% and the Z score was 0.9.

In the case of `CC(=O)Nc1cccc(-n2ccnc2-c2c(C)n(C)n(-c3ccccc3)c2=O)c1`, the “% Inhibition” value is recorded as -14% and the Z score came out at 1.89.

Regarding `CCCc1cc(C(=O)N2CCNC[C@H]2C(=O)NCc2ccccn2)ccn1`, the “% Inhibition” value stood at 1% and the Z score is listed as -0.22.

For the molecule `O=C(O)c1ccc(Cn2cnc3ccccc32)o1`, the “% Inhibition” value is on record as -4% and the Z score came to 0.48.

On to `OCC#Cc1csc(-c2cn(C[C@H]3COc4ccccc4O3)nn2)c1`, for which the “% Inhibition” value was determined as 1% and the Z score is -0.23.

Consider `COc1ccc(-c2noc(-c3ccc(NCCCN4CCC(C)CC4)nn3)n2)cc1`, for which the “% Inhibition” value is 10% and the Z score is on record as -1.17.

Regarding `COC1CCCCC1NC(=O)NCCCC1CCCCO1` (configuration not stated), the “% Inhibition” value is on record as -6% and the Z score was 1.11.

`CC(=O)Nc1c(-c2ccccc2)c(C)nn1-c1ccc(C(=O)Nc2ccc3c(c2)OCO3)cc1`: the “% Inhibition” value is 8% and the Z score is on record as -0.98.

Consider `CC(C)c1ccc(C#N)c(NC[C@H]2CN(C)C(=O)CO2)n1`, for which the “% Inhibition” value was -7% and the Z score is reported as 1.41.

For `Cc1csc(CNC(=O)c2cnccn2)n1`, the “% Inhibition” value is 0% and the Z score amounted to 0.08.

Turning to `O=C(N1CCn2c1nc1ccccc12)C1(c2ccccc2)CCOCC1`, the “% Inhibition” value is recorded as -8% and the Z score was 0.91.

Regarding `COc1cc(CN2C[C@H](CO)[C@H](CN3C[C@@H](C)O[C@@H](C)C3)C2)ccc1F`, the “% Inhibition” value is recorded as -2% and the Z score was found to be 0.44.

With `Cn1cnn(CC(=O)Nc2nnc(-c3cccc4ccccc34)[nH]2)c1=O`, the “% Inhibition” value was 2% and the Z score is recorded as -0.25.

Take `CCN(CC(=O)NCc1ccccc1)C1CN(C(=O)OC(C)(C)C)C1`: the “% Inhibition” value worked out at 5% and the Z score is on record as -0.86.

Values taken from ChEMBL document CHEMBL4888484, “Replenishing the malaria drug discovery pipeline: Screening and hit evaluation of the MMV Hit Generation Library 1 (HGL1) against asexual blood stage Plasmodium falciparum ,using a nano luciferase reporter read-out” (2022).
